According to the supplement of paper PMC11417369:
The other results are listed elsewhere or left out.

test system: PfHDP1 homeodomain (GST-tagged); assay: gcPBM binding intensity (ln(normalized median fluorescence intensity)); higher = stronger DNA binding
Method in brief: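 Binding of GST-tagged P. falciparum DNA-binding domains, expressed in E. coli and used at about 25 μg on average, was carried out for 1 h in 1× PBS containing 1% milk, 0.2 mg/ml BSA, 0.5% salmon testes DNA and 0.03% Triton X-100. The target was an Agilent 4 × 180k array of primer-extended double-stranded 36-bp intergenic genomic probes plus negative controls, read with Alexa488 anti-GST antibody at 488 nm. Binding intensity is the highest Masliner-normalised natural-log median intensity across replicate spots of either probe orientation.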

Sequence	gcPBM binding intensity (ln)
ATGGAATTTTTAGAATATGGATAATGTTACTTAAGT [CACACA_negctrl_site494]	6.05
TATATCGTTAATTATACACACATAAAATTAAACTTT [CACACA_site1274]	6.84
GTTATATATATATATATATATATATATATTTTTTTT [GTGCAC_negctrl_site597]	7.26
AAAAACCATGGGCACACACACATAATATATAATATA [CACACA_site1425]	6.83
AAGTACAAATTTAATAAAAATGAAACAAATATGTAT [TGCATGCA_negctrl_site94]	6.17
AAGGTGGAAACAATTACACACACACTAATAAAAAAA [CACACA_site9051]	6.85
AAGGGTTATTTGATATGTACTTATATATATATATAA [XGTACX_site1659]	6.57
TTTTTTAAAAGAAAATAAAAAATAAGCATAATATGA [CACACA_negctrl_site1574]	6.53
TATTAATTAAAAAAATGTACATAATTATAAATTTTT [XGTACX_site7994]	6.28
TACGGTTGTTTATTTTGTACGTAAAAAATATATTAT [XGTACX_site8393]	6.72
TAATATACATATATATGTACATATATATATATATAT [XGTACX_site2684]	9.3
TTCCAAAAAATTATTACACACATATGAGCACATATA [CACACA_site4543]	9.16
AAGAGAAATATATATTGTACAATAATTTTATTTGGT [XGTACX_site7642]	6.21
ATATCCATAATAAAAACATGCAACAGAAAAAAAAAA [TGCATGCA_site497]	6.81
TATATATTAATATTTACACACATGCGCACCCATAAA [CACACA_site2410]	7.51
AACAATTATTTGTCGACACACGTATATGTTATTTAG [CACACA_site5046]	6.74
ACCGTGGGAGGACACACACACACACCCACATATATA [CACACA_site4339]	6.38
ATTTTTGTTATTACATGTACCCATAATTATTATTAA [XGTACX_site3558]	7.28
TATTTATATTCCTTTACACACTCCATCTTATATCCA [CACACA_site3604]	7.1
ACAAAAAAATGAAAAGAAAAAGATATACCCCAATAT [CACACA_negctrl_site509]	7.26
AATTTAAATATTTGTTGTACGTATTTATATATTCTT [XGTACX_site3623]	6.53
AATATATAAACACGTACACACACATATATGTATATA [CACACA_site9168]	6.97

Sequence	gcPBM binding intensity (ln)
ATAATATATAAACACACACACATATATAAATACATT [CACACA_site4466]	6.71
CATGCCGTTAAATTATGTACTTATTATTTTAATATG [XGTACX_site4209]	6.32
TATATAATTAAAATAACACACATATATAAAAATATA [CACACA_site2990]	6.43
ATATTATAGTATATAACACACATTTTTCATAACACT [CACACA_site6331]	6.34
TGGCAAAATAGGCACACACACATATACATATATATT [CACACA_site1059]	6.77
GTATATATATTTCTTTAATAATTAAATTATAAATAT [CACACA_negctrl_site640]	6.73
ATATTATTCTTATATTCACACAGTTTATATTTCCGT [CACACA_site5653]	6.68
AAATTACATACACGCGCACACACAAAAAAAAAAAAA [CACACA_site1335]	7.24
TAAATTAAATATTATAAACACACATATATATTATTT [CACACA_site8189]	6.35
TTAAAAAATTATTGTAGTACATAGGAAATGAAAAAA [XGTACX_site155]	6.85
TATATACATAAAATTTGTACATATATATATATATAT [XGTACX_site3214]	9.32
AAAAAAAAAAAATGAGCACACATAAATAAAAACAAA [CACACA_site8447]	7.11
ATATAAATAAATACAACACACATGTCATATCTAAAT [CACACA_site7533]	6.45
ATATATATATATAGTTGTACTTAATTTTATATGTTA [XGTACX_site5256]	9.11
CCTTGATATATATAAAGTACATATATATATATATAT [XGTACX_site4325]	9.38
GTGAAATTATTTCCGTGTACACATAAATATATATTT [XGTACX_site3989]	7.34
TTTTACAAATATTACTGTACACATTTTCATATAATT [XGTACX_site17]	6.81
AAACTTATAAAAAGTAGTACCATAAAATAATACATA [XGTACX_site6523]	5.83
TGTTGTATATCTCTATATAGCTATATTGTATATATA [TGCATGCA_negctrl_site323]	6.62
TATATTATTTATTAGACACACATTATTAAAATATTT [CACACA_site4737]	6.27
ATTAACACATTTAAGTGTACATATATAAATATATAT [XGTACX_site7098]	6.48
TATACATTATTATTATGTACTTAAATATATATTATA [XGTACX_site5173]	6.05
